From article PMC4336329 (PLoS ONE, 2015)
Among all 310,000 compounds or so, about 14,000 (4.5%) showed an effect of 50% or more. Effects have a minus sign here. The list shows a part of the results.

biological target: human ether-à-go-go-related gene (hERG) potassium channel (human, UniProt Q12809); experiment: primary screen, population patch clamp on CHO cells stably expressing hERG
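Note: peak tail current of the secondary pulse compared with the same well before compound.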

Sequence of human ether-à-go-go-related gene (hERG) potassium channel (Q12809 whole entry, looked up): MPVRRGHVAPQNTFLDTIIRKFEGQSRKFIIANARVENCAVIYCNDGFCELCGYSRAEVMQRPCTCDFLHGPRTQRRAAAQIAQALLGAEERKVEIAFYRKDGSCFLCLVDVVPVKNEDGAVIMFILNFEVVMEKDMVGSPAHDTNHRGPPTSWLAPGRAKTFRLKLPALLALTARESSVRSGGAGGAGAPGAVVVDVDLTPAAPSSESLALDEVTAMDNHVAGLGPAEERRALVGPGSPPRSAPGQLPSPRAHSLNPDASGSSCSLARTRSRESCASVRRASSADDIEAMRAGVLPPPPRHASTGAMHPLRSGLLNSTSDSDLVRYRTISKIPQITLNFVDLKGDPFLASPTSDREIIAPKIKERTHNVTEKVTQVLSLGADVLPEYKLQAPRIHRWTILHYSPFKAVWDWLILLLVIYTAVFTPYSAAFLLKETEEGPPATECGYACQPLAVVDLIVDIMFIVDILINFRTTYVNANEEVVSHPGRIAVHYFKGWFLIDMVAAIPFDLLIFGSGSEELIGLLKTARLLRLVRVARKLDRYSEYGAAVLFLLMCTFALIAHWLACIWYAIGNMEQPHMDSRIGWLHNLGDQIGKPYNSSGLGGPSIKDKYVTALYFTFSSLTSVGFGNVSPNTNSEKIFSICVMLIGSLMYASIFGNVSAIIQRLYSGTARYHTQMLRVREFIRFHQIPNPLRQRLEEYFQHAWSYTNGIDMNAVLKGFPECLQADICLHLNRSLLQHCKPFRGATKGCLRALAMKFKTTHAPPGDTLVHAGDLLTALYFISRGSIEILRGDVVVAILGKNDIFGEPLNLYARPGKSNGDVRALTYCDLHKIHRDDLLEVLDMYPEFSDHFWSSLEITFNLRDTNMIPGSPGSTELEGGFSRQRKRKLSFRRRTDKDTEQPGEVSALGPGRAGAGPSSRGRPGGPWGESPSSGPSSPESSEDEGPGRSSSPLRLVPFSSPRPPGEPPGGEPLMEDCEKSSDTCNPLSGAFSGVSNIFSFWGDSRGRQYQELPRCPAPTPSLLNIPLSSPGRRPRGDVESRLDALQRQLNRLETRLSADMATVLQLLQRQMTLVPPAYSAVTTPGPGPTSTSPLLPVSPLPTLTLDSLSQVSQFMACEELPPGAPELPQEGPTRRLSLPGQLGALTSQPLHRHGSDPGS

| Structure (SMILES) | hERG current change (%, negative = inhibition) at 10uM |
| --- | --- |
| COC(=O)c1cc(C#N)c(=O)[nH]c1C | 20.3% |
| Cc1nn(C)c(N)c1C(O)(c1nccn1C)C(F)(F)F (stereo not drawn) | 6.36% |
| CCC[C@@H]1C[C@@]1(CCC)[C@@H](NC(=O)c1ccccc1)c1ccc(C(=O)OC)cc1 | 26.1% |
| O=C(CSc1nnnn1C1CCCCC1)N1c2ccccc2Sc2ccccc21 | -4.31% |
| CC(=O)Nc1sc(NC(=O)c2ccc([N+](=O)[O-])cc2)nc1-c1cccs1 | -0.605% |
| COc1ccc(CCN(C)CCC(=O)Nc2cccc(C)c2)cc1OC.Cl | -65.8% |
| CC(Sc1nc(-c2ccccc2)cc(C(F)(F)F)n1)C(=O)NCCN1CCOCC1 (stereo not drawn) | -12.1% |
| Cc1ccc(C(=O)c2cc3ccccc3o2)cc1 | 5.76% |
| CN(Cc1cccc(F)c1)C(=O)c1ccccc1Sc1ccccc1C#N | -12.3% |
| COc1cc(OC)c(/C=N/NC(=O)c2ccc(Cn3nc([N+](=O)[O-])cc3C)cc2)c(OC)c1 | -37.1% |
| CC(=O)c1ccc(S(=O)(=O)Nc2cccc(-c3ccc(N4CCOCC4)nn3)c2)cc1 | -20% |
| Cc1ccccc1NC(=O)/C(=C\c1cccs1)NC(=O)c1ccco1 | -7.17% |
| Oc1ccc(NCc2ccccc2OCc2ccccc2F)cc1 | -5.12% |
| O=C(NC1CCCCC1)N1CCN(C(c2ccccc2)c2ccccc2)CC1 | -8.83% |
| CCOC(=O)C1CCN(C(C(=O)NC2CCCCC2)c2ccc(OC)cc2)CC1 (stereo not drawn) | 1.79% |
| COc1ccccc1CN(Cc1nc2ccccc2c(=O)[nH]1)C(=O)Nc1ccccc1 | -7.21% |
| CC(C)(C)c1nc(SCC(=O)NNC(=O)c2ccccc2)c2ccccc2n1 | -1.13% |
| O=C(Nc1ccc2c(c1)OCO2)O[C@@H]1C[C@H]2CCC(=O)N3CC[C@@H](C1)[C@@H]23 | 31.3% |
| CC1CCCCN1CCNC(=O)CCc1nnc2n(Cc3ccccc3)c(=O)c3ccccc3n12 (stereo not drawn) | -51.6% |
| Cc1ccc(NC(=O)COC(=O)CNC(=O)c2ccc3ccccc3c2)c([N+](=O)[O-])c1 | -2.69% |
| Cc1cnc(C(=O)Nc2ccc(F)c(F)c2)cn1 | 8.1% |
| CCOC(=O)C1C(c2cccnc2)NC(=O)NC1(O)C(F)(F)F (stereo not drawn) | 10.5% |

| Structure (SMILES) | hERG current change (%, negative = inhibition) at 10uM |
| --- | --- |
| Cc1ccc(NC(=O)CCNC(=O)c2ccc(Cl)cc2)nc1 | 7.38% |
| O=C(NCCc1ccccc1)[C@@H]1CC=C[C@@H]2CCN(Cc3ccccc3)C(=O)[C@@H]21 | -1.71% |
| CCCCN(C(=O)c1ccc(N2CCCC2=O)cc1)c1c(N)n(Cc2ccccc2)c(=O)[nH]c1=O | 7.41% |
| O=C(Nc1nnc(-c2ccccc2Cl)s1)c1ccccc1F | 10.9% |
| CCNC(=S)N/N=C/c1cccc(OCc2c(F)cccc2Cl)c1 | 0.567% |
| COc1cc(SC)ccc1C(=O)NCCNC(=O)c1nonc1N | -6.81% |
| O=[N+]([O-])c1ccc(N2CCN(c3ccc(Cl)nn3)CC2)cc1NC1CC1 | -9.76% |
| Cc1cc(N2CCCC2)nc2ccc(NC(=S)NCCCN3CCC(C)CC3)cc12 | -29.6% |
| CCCOC1CCCN(C(=O)c2ccc(OC3CCN(C(=O)CCOC)CC3)cc2)C1 (stereo not drawn) | 10.1% |
| C=CCn1c(SCC(=O)N2CC(=O)Nc3ccccc32)nc2scc(-c3cccs3)c2c1=O | 2.42% |
| C/C(N)=C(/C#N)C(=O)CSc1cc(Cl)ccc1Cl | -2.07% |
| CCOc1cc([C@@H]2C[C@H]3CN(c4ccccc4)C(=O)[C@]34CCCN24)ccc1OC | -10.4% |
| COCCCNC(=S)N1CCCN(c2nc3c(C)c(C)ccc3cc2C#N)CC1 | -24.7% |
| O=C(NN(C(=O)c1ccccc1)c1ccccc1)c1ccccc1 | -27.8% |
| CCOC(=O)C1CCN(Cc2cnc(Oc3ccc(N)cc3)s2)CC1 | -10.6% |
| COC(=O)C(NC(=O)CN1C(=O)c2ccccc2C1=O)c1ccc(O)c(OC)c1 (stereo not drawn) | 4.53% |
| Cc1sc(NC(=O)CN(C(=O)c2ccccc2F)C2CCCC2)c(C(N)=O)c1C | -20.8% |
| Cc1nc(SC(C)C(=O)Nc2cccc(C(F)(F)F)c2)c2c(C)c(C(=O)O)sc2n1 (stereo not drawn) | 9.27% |
| Cc1cccc(C)c1N(Cc1ccccc1F)S(C)(=O)=O | 13.5% |
| CCOc1ccccc1N1Cc2cc(C)c(C)cc2C1 | -34.2% |
| CCn1nnnc1SCC(=O)NCc1ccc2c(c1)OCO2 | 8.16% |
| N#Cc1ccc(COc2cccc3cccnc23)cc1 | -41% |

| Structure (SMILES) | hERG current change (%, negative = inhibition) at 10uM |
| --- | --- |
| CCOCc1nnc(NC(=O)CCc2ccccc2)s1 | 8.85% |
| CN(c1ccccc1)S(=O)(=O)c1cccc(NC(=O)Cc2c(F)cccc2Cl)c1 | -7.15% |
| O=C(Nc1ccc(F)cc1F)c1cc(-c2ccc3c(c2)OCO3)on1 | -13.5% |
| CC(=O)NC(=S)Nc1sc2c(c1C(N)=O)CCC(C)C2 (stereo not drawn) | 0.576% |
| CC(C)CCNC1=NCCCCC1 | -3.32% |
| CCOC(=O)C1CCN(C(=O)Nc2c(-c3ccccc3)noc2C)CC1 | 20.6% |
| O=c1c(Cc2ccc(Cl)cc2Cl)c(O)ccn1CCCN1CCOCC1 | -6.58% |
| O=C(Nc1ccccc1)C(=O)Nc1cccnc1 | 22.8% |
| Cc1nc2nc(C)c(CCC(=O)N3CCN(c4ccccn4)CC3)c(C)n2n1 | -46.1% |
| COc1ccc(C(=O)N2CCN(c3ccccc3Cl)CC2)cc1S(=O)(=O)NC1CC1 | -32.7% |
| COc1ccccc1NS(=O)(=O)c1cccc(C(=O)N/N=C/c2ccc(OCC(=O)O)cc2)c1 | 17.1% |
| Cc1ccc(S(=O)(=O)C2(C(=O)N3CCCCC3C)CC2)cc1 (stereo not drawn) | 1.58% |
| CC(C)n1c(SCC(=O)NC2CC2)nnc1C1CC1 | 8.5% |
| CC1CC(C)CN(C(=O)c2ccncc2)C1 (stereo not drawn) | 10.1% |
| CCN1CCN(c2cc(N3CCc4ccccc4C3)c(F)cc2[N+](=O)[O-])CC1 | -51.9% |
| CCc1ccccc1NC(=O)c1cccs1 | -2.58% |
| O=[N+]([O-])c1cccc(Cl)c1CSc1ccccn1 | 6.81% |
| CCCn1c(=O)c(C(=O)Nc2c(C)n(C)n(-c3ccccc3)c2=O)c(O)c2ccccc21 | -12% |
| S=C(NCC1CCCO1)Nc1ccc(Cl)cc1 (stereo not drawn) | 27.4% |
| CCOC(=O)N1CCN(S(=O)(=O)N2CCCC(C(=O)NCc3ccccc3OC)C2)CC1 (stereo not drawn) | -38% |
| CC(=O)N1CC=C2C(C#N)=C(N)C(C#N)(C#N)C(CCc3ccccc3)C2C1 (stereo not drawn) | -27.6% |
| Cc1ccc(NS(=O)(=O)c2cc(NC(=O)c3ccc4c(c3)NC(=O)CS4)ccc2C)c(C)c1 | 12% |

| Structure (SMILES) | hERG current change (%, negative = inhibition) at 10uM |
| --- | --- |
| COc1ccc(-c2nn(-c3ccccc3)cc2C2CC(c3cccs3)=NN2C(=O)CCC(=O)O)cc1 (stereo not drawn) | 30.4% |
| CC(OCC(O)CN(C)Cc1nc2ccccc2c(=O)[nH]1)c1ccc(Cl)cc1 (stereo not drawn) | -34% |
| CCCNC(=O)N1[C@H]2CC[C@@H]1C(C(=O)OC)=C(c1cccc(Cl)c1)C2 | 42.8% |
| Cc1c(OC(C)C(=O)NCCCN2CCOCC2)ccc2c3c(c(=O)oc12)CCC3 (stereo not drawn) | 13.6% |
| CNC(=S)Nc1ccc(N2CCN(c3ccc(C(F)(F)F)cn3)CC2)nc1 | 6.29% |
| N#CCCN=C(NS(=O)(=O)c1ccccc1)c1ccccc1 | -2.03% |
| CCN(CC)CCn1c2c(c(SCC(=O)Nc3cc(OC)cc(OC)c3)nc1=O)CCC2 | -70.1% |
| CCOn1c(=O)c(C)[n+]([O-])c2ccccc21 | -10.1% |
| O=C(O)CC1S/C(=N\N=C/c2ccccc2O)N(c2ccc(O)cc2)C1=O (stereo not drawn) | 9.18% |
| COC(=O)CNc1n[nH]c(=S)[nH]c1=O | 6.57% |
| Clc1ccc2nc(C3CCN(Cc4ccccc4)CC3)[nH]c2c1 | -73.4% |
| N#Cc1c(N)n[nH]c1-c1cc2c([nH]1)CCCC2 | -13.4% |
| O=C(NC(=S)Nc1ccc(N2CCOCC2)cc1)c1cccc(Cl)c1 | 9.7% |
| C=CCn1c(=O)/c(=C2/SC(C)=C(C)N2CC)s/c1=C1/C(=O)N(CC)C(=S)N1c1ccccc1 | -4.43% |
| COc1ccc(OC)c(CN2CCN(C(=O)c3cccc(S(=O)(=O)Nc4ccccc4OC)c3)CC2)c1 | -38.2% |
| Cc1cccc(-c2n[nH]c([N+](=O)[O-])n2)c1 | 9.56% |
| COC(=O)c1ccc(C(=O)N2CCCC(Nc3ccc(F)c(F)c3)C2)cc1 (stereo not drawn) | -16.4% |
| COc1ccccc1NC(=O)COC(=O)c1oc2ccccc2c1C | 22.5% |
| Cc1cnc(-c2nnc(N(C)C(=O)C3CCCO3)s2)cn1 (stereo not drawn) | 2.91% |
| Cc1cccc(NC(=S)N/N=C/c2ccc3c(c2)OCO3)c1 | -2.58% |
| COc1cccc(-c2nc(N3CCC(C)CC3)c3ccccc3n2)c1O | 9.37% |
